Assay results reported in publication PMC11584650, “An inhibitory segment within G-patch activators tunes Prp43-ATPase activity during ribosome assembly” (Nature Communications, 2024).
Positions count from the first letter of the chain named. Names and notes keep the numbering of the source. No constants are given. Whether binding was seen depends on the method and setting. Some entries that bind do so weakly or less than the wild type. For part of these data: Where a sequence is shown, tags or fusion partners need not be part of it. Values belong to the binder of their own block, whether it stands above or below them.

Chains of the proteins cited; added tags and fusions are not shown.
UniProt P53131: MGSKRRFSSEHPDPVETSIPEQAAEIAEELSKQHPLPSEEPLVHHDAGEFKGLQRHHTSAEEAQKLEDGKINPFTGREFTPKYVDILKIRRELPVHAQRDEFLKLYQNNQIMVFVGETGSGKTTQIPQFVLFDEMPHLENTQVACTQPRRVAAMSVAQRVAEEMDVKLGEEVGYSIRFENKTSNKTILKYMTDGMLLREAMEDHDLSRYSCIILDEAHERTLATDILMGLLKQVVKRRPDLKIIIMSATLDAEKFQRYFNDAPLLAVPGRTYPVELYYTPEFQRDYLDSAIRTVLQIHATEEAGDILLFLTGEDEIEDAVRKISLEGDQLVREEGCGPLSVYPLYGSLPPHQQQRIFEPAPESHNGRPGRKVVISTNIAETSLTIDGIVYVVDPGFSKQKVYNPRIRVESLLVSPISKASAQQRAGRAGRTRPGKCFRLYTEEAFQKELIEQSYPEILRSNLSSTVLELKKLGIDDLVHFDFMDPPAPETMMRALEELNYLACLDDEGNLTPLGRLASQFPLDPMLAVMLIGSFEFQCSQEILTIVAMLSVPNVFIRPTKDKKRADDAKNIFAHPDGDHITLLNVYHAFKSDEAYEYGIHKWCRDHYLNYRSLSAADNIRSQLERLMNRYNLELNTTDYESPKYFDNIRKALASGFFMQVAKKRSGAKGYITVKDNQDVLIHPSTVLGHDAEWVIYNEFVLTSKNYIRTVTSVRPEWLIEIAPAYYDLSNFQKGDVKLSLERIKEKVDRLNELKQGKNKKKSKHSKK

Tests used:
[1] = target: His6-Prp43 (S. cerevisiae) (UniProt P53131); assay: cryo-EM structure; purified Prp43:Pxr1^GM complex, 0.2 mg/ml with 5 mM ATPγS, 50 mM Hepes pH 7.5, 200 mM NaCl, 5 mM MgCl2, 2 mM DTT; ADP seen in the map; both purified
[2] = target: His6-Prp43 (S. cerevisiae) (UniProt P53131); assay: co-purification after co-expression (Ni-NTA, SEC); proteins co-expressed in E. coli BL21(DE3)*, Ni-NTA purification of the His6-tagged protein, RNase A, Superose 6 Increase SEC in 50 mM Hepes pH 7.5, 200 mM NaCl, 5 mM MgCl2, 2 mM DTT; the complexes were used for ATPase assays
[3] = target: Pxr1^GM (yeast two-hybrid fusion) (S. cerevisiae) (UniProt P53335); assay: two-hybrid; LexA DNA-binding domain and GAL4 activation domain fusions in the reporter strain NMY32; HIS3 reporter, growth on SD-His, with 3-AT where indicated, 30 °C
[4] = target: Prp43 (yeast two-hybrid fusion) (S. cerevisiae) (UniProt P53131); assay: as above

binding [1]: binds | binding [2]: binds
B1: Pxr1^GM (recombinant, co-expressed with Prp43) (domain or fragment, UniProt P53335 1-137)
chain: MGLAATRTKQRFGLDPRNTAWSNDTSRFGHQFLEKFGWKPGMGLGLSPMNSNTSHIKVSIKDDNVGLGAKLKRKDKKDEFDNGECAGLDVFQRILGRLNGKESKISEELDTQRKQKIIDGKWGIHFVKGEVLASTWD

binding [3]: no binding
B2: Pxr1^GM (yeast two-hybrid fusion) (domain or fragment, UniProt P53335 1-137)
chain: B1 chain

binding [2]: binds
B3: Pxr1^GM-L33E (domain or fragment, UniProt P53335 1-137)
chain: B1 chain with L33E

B4: Pxr1^F126A (yeast two-hybrid fusion) (protein, UniProt P53335 1-271)
chain: MGLAATRTKQRFGLDPRNTAWSNDTSRFGHQFLEKFGWKPGMGLGLSPMNSNTSHIKVSIKDDNVGLGAKLKRKDKKDEFDNGECAGLDVFQRILGRLNGKESKISEELDTQRKQKIIDGKWGIHAVKGEVLASTWDPKTHKLRNYSNAKKRKREGDDSEDEDDDDKEDKDSDKKKHKKHKKHKKDKKKDKKDKKEHKKHKKEEKRLKKEKRAEKTKETKKTSKLKSSESASNIPDAVNTRLSVRSKWIKQKRAALMDSKALNEIFMITND
binding [4]: binds

binding [4]: binds
B5: Pxr1 (yeast two-hybrid fusion) (protein, UniProt P53335 1-271)
chain: B4 chain with A126F
